Measurements: article PMC11271582, “Pan-serotype dengue virus inhibitor JNJ-A07 targets NS4A-2K-NS4B interaction with NS2B/NS3 and blocks replication organelle formation” (Nature Communications, 2024)

Columns and labels:
[1] = system: sgDVs-R2A replicons with NS4B resistance mutations (DENV 2/16681); design: method as in PMID 34671169; details: fold change in EC50 versus WT; cited from earlier work
NS4A-2K-NS4B precursor = NS4A-2K-NS4B precursor (Dengue virus type 2, UniProt P29990); assay: pulse-chase labeling, cleavage kinetics in the polyprotein (pIRO-D) context; type: cell-based, DENV-2; details: 35 nM; pIRO-D NS4B-HA*, Huh7/Lunet-T7 cells; vehicle 15.4 ± 2.6 min; n = 3
Protocol: This observation was made in the trans-cleavage system (Fig. 2a). […] (NS4B-HA*) (Fig. 3a) and conducted pulse-chase experiments in presence or absence of JNJ-A07. Proteins were radio-labeled with [^35S] cysteine and methionine for 20 min, followed by incubation in non-radioactive medium for different time spans. Fully cleaved NS4B-HA* and corresponding cleavage intermediates were enriched by pulldown and proteins were analyzed by SDS-PAGE and autoradiography.
13 h later, cells were cultured in starvation medium for a further hour (DMEM lacking FCS, cysteine and methionine, but supplemented with 2 mM L-glutamine, 100 U/mL penicillin and 100 µg/mL streptomycin). After exchange to starvation medium containing [^35S]-label mix (100 µCi/well), cells were incubated for 20 minutes (pulse). Immediately thereafter, cells were washed once with DMEMComplete and maintained in this medium until harvest at different time points (chase). In the case of JNJ-A07 treatment, the compound was re-added at 35 nM concentration during the starvation, labeling and incubation phases. Samples were analyzed using the standard protocol for immunoprecipitation except that no adjustment of protein concentration was performed and no control sample of total lysates was collected. […] Gels were analyzed by phosphoimaging using exposure times ranging from 3 to 20 days. […]

[2] = biological target: interaction between NS1 and the NS4A-2K-NS4B precursor (Dengue virus type 2, UniProt P29990); type: cell-based, DENV-2
Protocol: This tagged NS1 is fully functional as it rescues the replication of a DENV NS1 deletion mutant unable to replicate on its own[18]. Lysates of cells cultured in the presence of various concentrations of JNJ-A07 for 14 h were evaluated either directly or used for HA-specific pull-down and proteins were analyzed by quantitative western blot (Fig. 5e). […] An analogous increase was quantified in the pull-down samples (Fig. 5g). […] The same result was found when we analyzed precursor interaction with NS1 in the polyprotein (pIRO-D) system (Supplementary Fig. 5c).

## COc1cc(NC(C(=O)N2CCc3ccc(OC(F)(F)F)cc32)c2ccc(Cl)cc2)cc(OCCCC(=O)O)c1 (stereo not shown) [JNJ-A07]
[1]
  resistance conferred by NS4B mutations S85L, T108I and A137T: weak
NS4A-2K-NS4B precursor
  NS4A-2K-NS4B precursor half-life: 13.6 ± 2.0 min
[2]; higher
  concentration without reduction of the NS1 interaction relative to that required to prevent precursor interaction with NS2B/NS3 (EC50 6.0 nM): around 165 fold
[2]; various concentrations, 14 h
  effect on NS4A-2K-NS4B interaction with NS1: did not reduce the NS4A-2K-NS4B interaction with NS1
